In publication PMC4336329 (PLoS ONE, 2015):
The campaign covered roughly 310,000 compounds. About 2,200 (0.71%) showed an effect of 50% or more. The effect is printed as a negative number. Some of the results follow.

What follows are molecules tested against human ether-à-go-go-related gene (hERG) potassium channel (human, UniProt Q12809) (assay: primary screen, population patch clamp on CHO cells stably expressing hERG).
Sequence of human ether-à-go-go-related gene (hERG) potassium channel (Q12809 whole entry, looked up): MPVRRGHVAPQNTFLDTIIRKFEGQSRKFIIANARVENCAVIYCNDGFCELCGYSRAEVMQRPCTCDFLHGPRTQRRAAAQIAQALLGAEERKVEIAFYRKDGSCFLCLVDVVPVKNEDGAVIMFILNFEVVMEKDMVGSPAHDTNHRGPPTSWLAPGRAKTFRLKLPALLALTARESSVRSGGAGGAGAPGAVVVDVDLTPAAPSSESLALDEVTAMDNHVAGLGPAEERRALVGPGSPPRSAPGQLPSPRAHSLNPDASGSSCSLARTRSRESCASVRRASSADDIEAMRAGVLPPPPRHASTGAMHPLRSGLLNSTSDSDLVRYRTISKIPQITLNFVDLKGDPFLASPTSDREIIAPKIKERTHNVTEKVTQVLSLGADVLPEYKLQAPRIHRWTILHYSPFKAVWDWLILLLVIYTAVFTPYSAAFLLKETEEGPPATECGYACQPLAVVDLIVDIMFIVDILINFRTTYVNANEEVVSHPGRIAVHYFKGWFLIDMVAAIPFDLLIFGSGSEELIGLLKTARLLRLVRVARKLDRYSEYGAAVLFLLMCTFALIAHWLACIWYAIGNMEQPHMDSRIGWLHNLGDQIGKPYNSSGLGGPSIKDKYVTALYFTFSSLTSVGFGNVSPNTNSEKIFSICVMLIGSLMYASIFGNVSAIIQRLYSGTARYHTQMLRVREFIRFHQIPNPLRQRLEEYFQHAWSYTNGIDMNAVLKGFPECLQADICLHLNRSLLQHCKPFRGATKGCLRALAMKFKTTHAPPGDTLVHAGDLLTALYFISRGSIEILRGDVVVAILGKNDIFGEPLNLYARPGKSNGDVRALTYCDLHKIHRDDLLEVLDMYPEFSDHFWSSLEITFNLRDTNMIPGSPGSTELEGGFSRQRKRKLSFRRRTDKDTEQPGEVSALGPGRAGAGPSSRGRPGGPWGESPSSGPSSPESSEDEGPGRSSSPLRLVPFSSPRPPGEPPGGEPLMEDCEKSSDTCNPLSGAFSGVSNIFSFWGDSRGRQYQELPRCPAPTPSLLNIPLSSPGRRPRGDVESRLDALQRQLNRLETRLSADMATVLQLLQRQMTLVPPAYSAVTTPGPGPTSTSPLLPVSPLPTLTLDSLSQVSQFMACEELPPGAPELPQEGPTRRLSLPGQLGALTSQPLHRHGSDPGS
For `Cc1oc(-c2ccc(Cl)cc2)cc1C(=O)/C(C#N)=C/Nc1cccc(OC(F)(F)F)c1`, the “hERG current change (%, negative = inhibition) at 1uM” value was 7.4%.
With `COc1ccc(CC(=O)N(CC2CCCO2)c2nc3ccccc3s2)cc1` (stereo not shown) the “hERG current change (%, negative = inhibition) at 1uM” value was 6.23%.
`CCCOn1c(-n2nc(C)cc2C)nc2ccccc2c1=O` was tested, and the “hERG current change (%, negative = inhibition) at 1uM” value was 6.89%.
With `CC1CCN(C(=O)CNS(=O)(=O)c2ccc(Br)s2)CC1` the “hERG current change (%, negative = inhibition) at 1uM” value was -0.447%.
For `CCOC(=O)C1C(=O)CC(C)(O)C(C(=O)OCC)C1c1ccco1` (stereo not shown), the “hERG current change (%, negative = inhibition) at 1uM” value was -2.26%.
`CC(=O)Nc1cccc(Oc2cc(C#N)c(C#N)cc2N2CCOCC2)c1` was tested, and the “hERG current change (%, negative = inhibition) at 1uM” value was 6.97%.
In the case of `CCOc1ccccc1NS(=O)(=O)c1ccc(OC)c(OC)c1`, the “hERG current change (%, negative = inhibition) at 1uM” value was 10.6%.
For `CCN(CC)S(=O)(=O)c1cccc(-c2nnc(SCC(N)=O)n2CCc2ccccc2)c1`, the “hERG current change (%, negative = inhibition) at 1uM” value was -1.62%.
For `COc1ccccc1-n1ccnc(SCC(=O)NC2CCCCC2)c1=O`, the “hERG current change (%, negative = inhibition) at 1uM” value was 7.12%.
In the case of `Cc1cccn2cc(CCNS(=O)(=O)c3ccc4c(c3)OCCO4)nc12`, the “hERG current change (%, negative = inhibition) at 1uM” value was 3.67%.
For `COc1ccccc1Nc1nc2nonc2nc1N1CCCCC1C` (stereo not shown), the “hERG current change (%, negative = inhibition) at 1uM” value was 13.7%.
In the case of `CCOC(=O)N1CCN(S(=O)(=O)N(C)C)CC1`, the “hERG current change (%, negative = inhibition) at 1uM” value was 9.62%.
In the case of `COc1cccc(C2CC(c3ccc(C)cc3)n3ncnc3N2)c1` (stereo not shown), the “hERG current change (%, negative = inhibition) at 1uM” value was -6.28%.
In the case of `COc1ccc(CCNC(=O)CSc2n[nH]c(N)n2)cc1OC`, the “hERG current change (%, negative = inhibition) at 1uM” value was 18.1%.
For `O=C1C2CCCN2C(=S)N1C1CCCCC1` (stereo not shown), the “hERG current change (%, negative = inhibition) at 1uM” value was 6.41%.
`CCOc1ccccc1N(C(=O)CNC(=O)c1ccco1)C(C(=O)NC(C)(C)C)c1ccncc1` (stereo not shown) was tested, and the “hERG current change (%, negative = inhibition) at 1uM” value was 8.81%.
For `Cn1c(N)c(-c2nc3cccnc3n2C)sc1=S`, the “hERG current change (%, negative = inhibition) at 1uM” value was 26.6%.
For `COc1ccc(C(=O)N/N=C/c2sc3ccccc3c2O)cc1`, the “hERG current change (%, negative = inhibition) at 1uM” value was 8.96%.
`CCCC(=O)OCCNc1cc(Sc2nccn2C)c2nonc2c1[N+](=O)[O-]` was tested, and the “hERG current change (%, negative = inhibition) at 1uM” value was 2.09%.
For `CCSc1nnc(-c2sc3nnc(-c4ccccc4)c(-c4ccccc4)c3c2N)o1`, the “hERG current change (%, negative = inhibition) at 1uM” value was 15.4%.
`CCOC(=O)/C(C#N)=N/Nc1ccc(S(=O)(=O)N2CCc3ccccc32)cc1` was tested, and the “hERG current change (%, negative = inhibition) at 1uM” value was 9.3%.
For `S=c1[nH]nc(-c2cc(-c3ccccc3)n[nH]2)n1/N=C/c1ccccc1`, the “hERG current change (%, negative = inhibition) at 1uM” value was 9.99%.
`CC(C)NC(=O)CN(C(=O)CCC(=O)Nc1ccccn1)c1ccc(F)c(Cl)c1` was tested, and the “hERG current change (%, negative = inhibition) at 1uM” value was 7.45%.
For `COc1ccc2c(c1)O/C(=C\c1sccc1C)C2=O`, the “hERG current change (%, negative = inhibition) at 1uM” value was 0.193%.
`COc1ccc(N2CCN(C(=O)c3ccc(NS(=O)(=O)c4ccc(F)cc4)cc3)CC2)cc1` was tested, and the “hERG current change (%, negative = inhibition) at 1uM” value was 1.5%.
`CC(=O)Nc1cc(NC(C)=O)cc(C(=O)OCC(=O)N(c2ccccc2)C2CCS(=O)(=O)C2)c1` (stereo not shown) was tested, and the “hERG current change (%, negative = inhibition) at 1uM” value was 11.9%.
`Cc1ccc(NC(=O)COC(=O)c2ccc3c(c2)OCCO3)cc1` was tested, and the “hERG current change (%, negative = inhibition) at 1uM” value was 9.33%.
With `C=CCn1c(=O)c(C(=O)Nc2ccccc2O)c(O)c2ccccc21` the “hERG current change (%, negative = inhibition) at 1uM” value was 12.3%.
In the case of `Nc1cc(=O)nc(SCC(=O)Nc2cccc3ccccc23)n1CCc1ccccc1`, the “hERG current change (%, negative = inhibition) at 1uM” value was -1.09%.
With `Cc1ccc(OCC(=O)N(C)CC(=O)Nc2ccc(N3CCOCC3)cc2)cc1` the “hERG current change (%, negative = inhibition) at 1uM” value was 14.3%.
For `O=C(Nc1ccc2c(c1)OCCO2)C1CC(c2ccc(F)cc2)=NO1` (stereo not shown), the “hERG current change (%, negative = inhibition) at 1uM” value was 3.55%.
With `COc1ccc(CN2C(=O)[C@@H]3C(c4ccc(F)cc4)=NO[C@@H]3C2=O)cc1` the “hERG current change (%, negative = inhibition) at 1uM” value was 9.84%.
For `CCC(C)(C)n1nnnc1CN1CCC(O)(c2cccc(C(F)(F)F)c2)CC1`, the “hERG current change (%, negative = inhibition) at 1uM” value was 17.1%.
`CC(=O)Nc1nc(C2CC2)cc(-c2ccccc2)c1C#N` was tested, and the “hERG current change (%, negative = inhibition) at 1uM” value was 10.9%.
`CCOC(=O)N1CCC(NC(=O)c2ccccc2C(=O)O)CC1` was tested, and the “hERG current change (%, negative = inhibition) at 1uM” value was 6.18%.
For `COC(=O)Cn1nnc(N2CCOCC2)n1`, the “hERG current change (%, negative = inhibition) at 1uM” value was 21.2%.
In the case of `CCN1CCN(C(c2ccccc2OC)c2nnnn2C2CCCCC2)CC1.Cl` (stereo not shown), the “hERG current change (%, negative = inhibition) at 1uM” value was 10.1%.
In the case of `CC(OC(=O)C1CSC2(c3ccc(F)cc3)CCC(=O)N12)C(=O)NC(N)=O` (stereo not shown), the “hERG current change (%, negative = inhibition) at 1uM” value was 13.5%.
In the case of `CC(C)CN(C(=O)C1COc2ccccc2O1)c1c(N)n(CC(C)C)c(=O)[nH]c1=O` (stereo not shown), the “hERG current change (%, negative = inhibition) at 1uM” value was 1.48%.
In the case of `Fc1ccc(C(c2nnnn2C2CCCC2)N(Cc2ccco2)CC2CCCO2)cc1` (stereo not shown), the “hERG current change (%, negative = inhibition) at 1uM” value was 3.96%.
For `Cc1cc(Br)c(OCc2ccc(C(=O)N/N=C3\CC4CC=CC34)cc2)c(Br)c1` (stereo not shown), the “hERG current change (%, negative = inhibition) at 1uM” value was 6.99%.
In the case of `CCN(CC)CCNC(=O)Cn1cnc2sc(C)c(S(=O)(=O)N3CCN(c4ccccc4OC)CC3)c2c1=O`, the “hERG current change (%, negative = inhibition) at 1uM” value was 11.9%.
For `CC1=Nc2cc(C(=O)NCCCN3CCOCC3)ccc2Sc2c(C)ccc(C)c21`, the “hERG current change (%, negative = inhibition) at 1uM” value was 14.7%.
With `COc1cc(/C=C/C(=O)OCC(=O)Nc2cc(C)c(C)cc2[N+](=O)[O-])ccc1O` the “hERG current change (%, negative = inhibition) at 1uM” value was 9.25%.
For `CC(Oc1ccc2ccccc2c1)C(=O)NNC(=S)NC(=O)c1ccco1` (stereo not shown), the “hERG current change (%, negative = inhibition) at 1uM” value was 5.12%.
`O=S(=O)(c1ccc(NC(=S)N/N=C/c2c3ccccc3cc3ccccc23)cc1)N1CCOCC1` was tested, and the “hERG current change (%, negative = inhibition) at 1uM” value was 4.28%.
With `CCCCn1c(N)c(N(CCOC)C(=O)c2cccc(S(=O)(=O)N(CC)c3ccccc3)c2)c(=O)[nH]c1=O` the “hERG current change (%, negative = inhibition) at 1uM” value was 3.36%.
With `COc1ccccc1NC(=O)c1csc2c1CCC(C)C2` (stereo not shown) the “hERG current change (%, negative = inhibition) at 1uM” value was 7.55%.
In the case of `COc1ccccc1-c1cc2ccccc2[nH]1`, the “hERG current change (%, negative = inhibition) at 1uM” value was 13.5%.
With `CC(/C=N/NC(=O)c1ccco1)=C\c1ccccc1` the “hERG current change (%, negative = inhibition) at 1uM” value was 11.8%.
For `COCCN(CCOC)S(=O)(=O)c1ccc(C(=O)Nc2ccc([N+](=O)[O-])cc2OC)cc1`, the “hERG current change (%, negative = inhibition) at 1uM” value was 11.1%.
With `O=C(NCC1CCCCC1)C1(CC2CC(c3cccc(Br)c3)=NO2)CCNCC1` (stereo not shown) the “hERG current change (%, negative = inhibition) at 1uM” value was 1.29%.
In the case of `CCOC(=O)c1ccc(NC(=O)C2=C(C)Nc3nc(CCCO)nn3C2c2cccc(C)c2)cc1` (stereo not shown), the “hERG current change (%, negative = inhibition) at 1uM” value was 5.09%.
`N#Cc1c(N)nc(N)nc1Nc1ccc(Br)cc1` was tested, and the “hERG current change (%, negative = inhibition) at 1uM” value was 12.3%.
`COc1ccc(CC(=O)Nc2cccc(-c3nnc(-c4ccco4)o3)c2)cc1` was tested, and the “hERG current change (%, negative = inhibition) at 1uM” value was 5.57%.
